# Laboratory results as given in PubChem BioAssay (Tox21).
# Where “and” joins values, the source holds several entries; their conditions need not be identical. Equal values may be shown once. The inconclusive results got no clear call from the source; some entries with a clear call stand among them for comparison. For some assays here: Potencies beside an inconclusive call are fits to weak or partial responses and may not hold up. Some structures have more than one record in an assay (separate samples or runs), and their calls can disagree. Calls of active or inactive are those of the source. Unless noted, calls come from the whole dose curve.
# Columns and labels:
# [1] = qHTS assay to identify small molecule agonists of the endoplasmic reticulum stress response signaling pathway (AID 1159516; active = well fitted activation curve with a large enough effect in the signal ratio in the repeat runs, not every such curve was filed as active; inconclusive = weak or mixed curves, or effect the other way; the % refers to the signal ratio; note: potency is the fitted concentration of half-maximal effect; for activation: % is set by controls: 0 for no effect and ±100 for the full control effect); details: ESRE-bla HeLa, ER stress beta-lactamase reporter, 5 h
# In short: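 CellSensor ESRE-bla HeLa cells, 1,500 per well, plated overnight, then exposed to compounds for 5 hr at 37 C. Beta-lactamase reporter read with LiveBLAzer B/G FRET substrate after 2 hr at room temperature, 405 nm excitation, 460 and 530 nm emission.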
# [2] = qHTS assay for small molecule agonists of the antioxidant response element (ARE) signaling pathway (AID 743202; active = well fitted activation curve with a large enough effect in the signal ratio in the repeat runs, not every such curve was filed as active; inconclusive = weak or mixed curves, or effect the other way; inactive = no such curve, though single readings can be large or run the other way; the % refers to the signal ratio; note: potency is the fitted concentration of half-maximal effect; for activation: % is set by controls: 0 for no effect and ±100 for the full control effect); details: HepG2 ARE-bla reporter, beta-lactamase FRET, 16 h
# In short: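 Read-out: LiveBLAzer B/G FRET substrate fluorescence after 2 h at room temperature, following 16 h compound treatment at 37 C of HepG2 cells carrying an ARE-driven beta-lactamase reporter.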
# [3] = target: Vitamin D3 receptor (Homo sapiens) (UniProt P11473); experiment: qHTS assay to identify small molecule antagonists of the vitamin D receptor (VDR) signaling pathway (AID 743223; active = well fitted inhibition curve with a large enough effect in the signal ratio in the repeat runs, not every such curve was filed as active; inconclusive = weak or mixed curves, or effect the other way; inactive = no such curve, though single readings can be large or run the other way; the % refers to the signal ratio; note: potency is the fitted concentration of half-maximal effect); details: VDR-UAS-bla HEK293T, beta-lactamase FRET ratio, 16 h
# UniProt P11473, sequence (P11473 whole entry, looked up): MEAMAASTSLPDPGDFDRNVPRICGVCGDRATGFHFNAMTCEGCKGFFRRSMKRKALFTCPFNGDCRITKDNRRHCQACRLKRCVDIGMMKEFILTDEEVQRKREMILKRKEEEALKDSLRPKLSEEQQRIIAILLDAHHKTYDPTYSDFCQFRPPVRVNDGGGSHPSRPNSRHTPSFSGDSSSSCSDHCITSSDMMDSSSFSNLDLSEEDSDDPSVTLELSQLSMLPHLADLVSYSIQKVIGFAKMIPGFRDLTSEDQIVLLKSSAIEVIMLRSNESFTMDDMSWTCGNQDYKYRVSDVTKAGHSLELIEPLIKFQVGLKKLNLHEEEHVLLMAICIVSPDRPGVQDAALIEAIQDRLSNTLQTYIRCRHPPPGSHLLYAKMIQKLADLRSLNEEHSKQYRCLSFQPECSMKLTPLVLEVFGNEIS
# In short: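 VDR-bla cells were plated, incubated 4 h at 37C, then given compound and 1alpha,25-dihydroxyvitamin D3 (3 nM final). After 16 h at 37C, LiveBLAzer B/G FRET substrate was added for 2 h at room temperature and fluorescence read.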
# [4] = qHTS assay to identify small molecule antagonists of the vitamin D receptor (VDR) signaling pathway - cell viability counter screen (AID 743225; active = well fitted curve in the direction sought with a large enough effect in the repeat runs; inconclusive = weak or mixed curves; inactive = no such curve, though single readings can be large; an effect the other way counts as inactive or inconclusive; note: nearly all actives have a fitted effect of over 50% in size; note: potency is the fitted concentration of half-maximal effect); details: VDR-bla HEK293T viability, CellTiter-Glo luminescence, 16 h; viability change, negative = cytotoxic: at 61 µM (top of the series) unless noted
# In short: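 VDR-bla HEK 293T cells, 4 h pre-incubation at 37C, then compound plus 1-alpha,25-dihydroxyvitamin D3 (3 nM final) for 16 h. After the beta-lactamase FRET read, CellTiter-Glo was added to the same wells; luminescence after 30 min at room temperature.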
# [5] = qHTS assay to identify small molecule agonists of the NFkB signaling pathway - cell viability counter screen (AID 1159515); note: nearly all actives have a fitted effect of over 55% in size; note: potency is the fitted concentration of half-maximal effect
# In short: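 NFkB-bla ME-180 cells, 2,000/well, plated overnight at 37 C; compound added for 5 hr at 37 C. Viability read in the same wells as the bla reporter, by CellTiter-Glo luminescence after 30 min at room temperature.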
# [6] = target: Vitamin D3 receptor (Homo sapiens) (UniProt P11473); experiment: qHTS assay to identify small molecule agonists of the vitamin D receptor (VDR) signaling pathway (AID 743222); details: HEK293T VDR-UAS-bla, beta-lactamase FRET ratio, 16 h; activation: at 63.5 µM (top of the series) unless noted; note: % is set by controls: 0 for no effect and ±100 for the full control effect
# In short: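 VDR-bla cells plated 4 h at 37 C, then exposed to compounds for 16 h at 37 C. Beta-lactamase reporter activity measured by fluorescence after 2 h room-temperature loading with LiveBLAzer B/G FRET substrate.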
# [7] = target: Peroxisome proliferator-activated receptor gamma (Homo sapiens) (UniProt P37231); experiment: qHTS assay to identify small molecule antagonists of the peroxisome proliferator-activated receptor gamma (PPARg) signaling pathway (AID 743191); details: HEK293H PPARg-UAS-bla, beta-lactamase ratio, antagonist, 17 h; note: % is set by controls: 0 for no effect and ±100 for the full control effect; nearly all actives have a fitted effect of over 30% in size
# UniProt P37231, sequence (P37231 whole entry, looked up): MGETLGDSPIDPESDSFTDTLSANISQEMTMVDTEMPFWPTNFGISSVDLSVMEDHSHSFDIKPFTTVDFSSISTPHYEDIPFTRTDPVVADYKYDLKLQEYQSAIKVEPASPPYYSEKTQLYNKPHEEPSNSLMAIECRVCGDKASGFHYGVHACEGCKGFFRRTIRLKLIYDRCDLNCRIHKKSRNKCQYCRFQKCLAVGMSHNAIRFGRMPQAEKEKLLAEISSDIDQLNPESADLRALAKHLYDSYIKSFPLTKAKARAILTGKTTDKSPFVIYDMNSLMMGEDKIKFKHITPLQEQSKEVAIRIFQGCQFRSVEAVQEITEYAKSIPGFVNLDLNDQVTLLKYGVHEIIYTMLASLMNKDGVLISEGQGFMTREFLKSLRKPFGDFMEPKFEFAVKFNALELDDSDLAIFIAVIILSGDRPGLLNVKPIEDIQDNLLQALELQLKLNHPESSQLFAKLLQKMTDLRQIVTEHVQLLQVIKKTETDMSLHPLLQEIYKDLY
# In short: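 GeneBLAzer PPARg UAS-bla HEK293H cells carrying a UAS-driven beta-lactamase reporter were plated at 3000 cells/well, preincubated 5 h at 37C, then given compound for 17 h at 37C; LiveBLAzer B/G FRET substrate was read after 1 h at room temperature.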
# [8] = qHTS assay to identify small molecule agonists of the peroxisome proliferator-activated receptor delta (PPARd) signaling pathway - cell viability counter screen (AID 743211; active = well fitted curve in the direction sought with a large enough effect in the repeat runs; inconclusive = weak or mixed curves; inactive = no such curve, though single readings can be large; an effect the other way counts as inactive or inconclusive; note: potency is the fitted concentration of half-maximal effect; nearly all actives have a fitted effect of over 55% in size); details: PPARd-bla HEK293H viability, CellTiter-Glo luminescence, 17 h; activity change, negative = cytotoxicity: at 62.6 µM (top of the series) unless noted
# In short: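 PPARd-bla HEK293H cells (UAS-beta-lactamase reporter) were treated with compounds for 17 h at 37 C. Viability was then read in the same wells by CellTiter-Glo luminescence after 30 min at room temperature.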
# [9] = qHTS assay to identify small molecule antagonists of the peroxisome proliferator-activated receptor delta (PPARd) signaling pathway - cell viability counter screen (AID 743213; active = well fitted curve in the direction sought with a large enough effect in the repeat runs; inconclusive = weak or mixed curves; inactive = no such curve, though single readings can be large; an effect the other way counts as inactive or inconclusive; note: nearly all actives have a fitted effect of over 50% in size; note: potency is the fitted concentration of half-maximal effect); details: PPARd-bla HEK293H viability, CellTiter-Glo luminescence, 17 h; viability change, negative = cytotoxic: at 62 µM (top of the series) unless noted
# In short: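 CellTiter-Glo was added to PPARd-bla HEK293H wells following 17 h compound treatment in the presence of 300 nM L165041. Luminescence was recorded after 30 min at room temperature.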
# [10] = qHTS assay to identify small molecule agonists of the vitamin D receptor (VDR) signaling pathway - cell viability counter screen (AID 743224; active = well fitted curve in the direction sought with a large enough effect in the repeat runs; inconclusive = weak or mixed curves; inactive = no such curve, though single readings can be large; an effect the other way counts as inactive or inconclusive; note: potency is the fitted concentration of half-maximal effect; nearly all actives have a fitted effect of over 50% in size)
# In short: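 VDR-bla cells, 4 h after plating, exposed to compounds for 16 h at 37C; viability then read in the same wells as CellTiter-Glo luminescence after 30 min at room temperature, following the bla FRET read.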
# [11] = qHTS assay for small molecule agonists of the antioxidant response element (ARE) signaling pathway - cell viability counter screen (AID 743203); note: % is set by controls: 0 for no effect and ±100 for the full control effect; nearly all actives have a fitted effect of over 55% in size
# In short: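 ARE-bla HepG2 cells were plated, rested 5 h at 37C/5% CO2, then exposed to compounds in DMSO for 16 h. Viability was read as CellTiter-Glo luminescence after 30 min at room temperature, in the same wells as the ARE screen.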
# [12] = target: Bile acid receptor (Homo sapiens) (UniProt Q96RI1); experiment: qHTS assay to identify small molecule antagonists of the farnesoid-X-receptor (FXR) signaling pathway (AID 743217; active = well fitted inhibition curve with a large enough effect in the signal ratio in the repeat runs, not every such curve was filed as active; inconclusive = weak or mixed curves, or effect the other way; inactive = no such curve, though single readings can be large or run the other way; the % refers to the signal ratio; note: potency is the fitted concentration of half-maximal effect); details: HEK293T FXR-UAS-bla, beta-lactamase ratio, CDCA-stimulated, 16 h; activity change, negative = inhibition: at 62.6 µM (top of the series) unless noted
# UniProt Q96RI1, sequence (Q96RI1 whole entry, looked up): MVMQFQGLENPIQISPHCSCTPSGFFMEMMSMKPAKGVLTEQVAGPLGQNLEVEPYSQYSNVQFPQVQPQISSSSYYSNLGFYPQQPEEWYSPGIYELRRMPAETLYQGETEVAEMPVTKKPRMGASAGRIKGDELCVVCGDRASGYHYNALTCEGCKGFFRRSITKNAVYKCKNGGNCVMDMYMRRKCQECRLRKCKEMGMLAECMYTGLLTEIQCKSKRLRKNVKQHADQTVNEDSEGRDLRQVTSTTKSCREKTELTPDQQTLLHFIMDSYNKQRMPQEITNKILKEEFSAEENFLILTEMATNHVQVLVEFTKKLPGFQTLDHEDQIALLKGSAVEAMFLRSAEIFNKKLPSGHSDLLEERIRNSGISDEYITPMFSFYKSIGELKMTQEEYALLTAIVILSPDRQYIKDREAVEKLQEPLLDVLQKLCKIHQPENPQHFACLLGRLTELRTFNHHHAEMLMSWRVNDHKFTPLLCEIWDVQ
# In short: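 FXR-UAS-bla HEK 293T cells (beta-lactamase reporter) given compound plus chenodeoxycholic acid (50 uM final), 16 h at 37C. LiveBLAzer B/G FRET substrate added for 2 h at room temperature; fluorescence read.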
# [13] = qHTS assay for small molecule activators of the heat shock response signaling pathway (AID 743210; active = well fitted activation curve with a large enough effect in the signal ratio in the repeat runs, with a control signal flat, not every such curve was filed as active; inconclusive = weak or mixed curves; the % refers to the signal ratio; note: potency is the fitted concentration of half-maximal effect); details: HeLa HSE-bla reporter, beta-lactamase ratio, 5 h; activation: at 62.6 µM (top of the series)
# In short: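 HSE-bla HeLa cells (beta-lactamase reporter under heat shock response elements) were exposed to compounds for 5 h at 37 C, then loaded with LiveBLAzer B/G FRET substrate for 2.5 h at room temperature before fluorescence reading.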
# [14] = qHTS assay to identify small molecule agonists of the farnesoid-X-receptor (FXR) signaling pathway - cell viability counter screen (AID 743218; active = well fitted curve in the direction sought with a large enough effect in the repeat runs; inconclusive = weak or mixed curves; inactive = no such curve, though single readings can be large; an effect the other way counts as inactive or inconclusive; note: nearly all actives have a fitted effect of over 45% in size; note: potency is the fitted concentration of half-maximal effect); details: FXR-bla HEK293T viability, CellTiter-Glo luminescence, 16 h; viability change, negative = cytotoxic: at 62.6 µM (top of the series) unless noted
# In short: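 FXR-UAS-bla HEK 293T cells exposed to compounds for 16 h at 37C. Cytotoxicity read in the same wells by CellTiter-Glo luminescence after 30 min at room temperature, following the beta-lactamase FRET read.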
# [15] = target: Peroxisome proliferator-activated receptor delta (Homo sapiens) (UniProt Q03181); experiment: qHTS assay to identify small molecule antagonists of the peroxisome proliferator-activated receptor delta (PPARd) signaling pathway (AID 743215; active = well fitted inhibition curve with a large enough effect in the signal ratio in the repeat runs, not every such curve was filed as active; inconclusive = weak or mixed curves, or effect the other way; inactive = no such curve, though single readings can be large or run the other way; the % refers to the signal ratio;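 note: cells stimulated with agonist L165041 at 300 nM final during compound exposure; % is set by controls: 0 for no effect and ±100 for the full control effect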); details: HEK293H PPARd-UAS-bla, beta-lactamase FRET ratio, antagonist, 17 h; ratio activity, negative = inhibition: at 62 µM (top of the series) unless noted
# UniProt Q03181, sequence (Q03181 whole entry, looked up): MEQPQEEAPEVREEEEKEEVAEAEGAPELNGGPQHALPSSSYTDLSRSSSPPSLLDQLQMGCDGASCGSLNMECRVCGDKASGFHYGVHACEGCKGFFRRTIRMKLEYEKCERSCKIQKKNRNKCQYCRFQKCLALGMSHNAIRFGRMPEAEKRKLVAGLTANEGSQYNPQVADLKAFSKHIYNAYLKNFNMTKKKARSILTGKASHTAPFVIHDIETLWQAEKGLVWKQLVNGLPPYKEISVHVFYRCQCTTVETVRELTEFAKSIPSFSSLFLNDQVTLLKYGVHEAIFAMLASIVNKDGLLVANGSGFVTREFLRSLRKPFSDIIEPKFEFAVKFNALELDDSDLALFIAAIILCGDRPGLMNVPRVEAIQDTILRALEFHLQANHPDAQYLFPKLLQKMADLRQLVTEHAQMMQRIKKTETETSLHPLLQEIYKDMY
# In short: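 PPARd-bla HEK293H cells (UAS-bla reporter) preincubated 5 h, then given compound plus 300 nM final L165041 agonist for 17 h at 37 C. Beta-lactamase activity read by LiveBLAzer B/G FRET substrate fluorescence after 2 h at room temperature.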
# [16] = qHTS assay to identify small molecule antagonists of the peroxisome proliferator-activated receptor gamma (PPARg) signaling pathway - cell viability counter screen (AID 743194; active = well fitted curve in the direction sought with a large enough effect in the repeat runs; inconclusive = weak or mixed curves; inactive = no such curve, though single readings can be large; an effect the other way counts as inactive or inconclusive; note: potency is the fitted concentration of half-maximal effect; nearly all actives have a fitted effect of over 55% in size); details: PPARg-bla HEK293H viability, CellTiter-Glo luminescence, 17 h; Potency: co-treated with 50 nM rosiglitazone unless noted; activity change, negative = cytotoxicity: at 62.6 µM (top of the series), co-treated with 50 nM rosiglitazone unless noted
# In short: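 PPARg-UAS-bla HEK293H cells were plated, rested 5 h at 37 C, then treated with compounds plus rosiglitazone (50 nM final) for 17 h at 37 C; viability was then read by CellTiter-Glo luminescence after 30 min at room temperature.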
# [17] = activation: at 61 µM (top of the series) unless noted
# [18] = activation: at 73.3 µM (top of the series) unless noted
# [19] = activity change, negative = inhibition: at 61 µM (top of the series) unless noted
# [20] = ratio activity, negative = inhibition: at 62.6 µM (top of the series) unless noted
# Tags give direction and shape of the fitted curve or compound fluorescence and quenching.
compound,measurement,setting,value
C[C@H]1O[C@H](OC2[C@@H](O)[C@@H](O)C(O)[C@H](O)[C@H]2O)[C@@H](N)C[C@@H]1N=C(N)C(=O)O (stereo partly drawn),Potency,[1]; [17],inactive
CNC,Potency,[2]; [18],inactive
same,Potency,[3]; [19],"inconclusive: 19.2 µM [rising, partial curve, poor fit]"
same,"viability change, negative = cytotoxic",[4],inconclusive: 6.12% [cytotoxic]
same,Potency,[5],"inconclusive: 61.6 µM [rising, partial curve, poor fit]"
COc1c(C(C)(C)C)cc([N+](=O)[O-])c(C)c1[N+](=O)[O-],Potency,[6],inactive
same,Potency,[3]; [19],inactive
same,Potency,[5],"inconclusive: 54.5 µM [rising, single point]"
COP(=S)(OC)SCN1C(=O)c2ccccc2C1=O,"ratio activity, negative = inhibition",[7]; at 62.6 µM (top of the series),inactive: -0.422% and inactive: 3.94%
same,"ratio activity, negative = inhibition",[7]; [20],inconclusive: 7.23% [at 81.1 µM]
same,Potency,[2]; [18],"inconclusive: 34.4 µM [rising, partial curve, poor fit]"
same,activation,[2]; [18],inconclusive: 20.3% [at 94.8 µM]
same,Potency,[8],"inconclusive: 7.5 µM [cytotoxic, single point]"
same,Potency,[9],inactive
same,Potency,[10],"inconclusive: 0.298 µM [cytotoxic, single point]"
same,Potency,[4],"inconclusive: 1.07 µM [cytotoxic, full curve]"
same,Potency,[1]; [17],inactive
O=C(CCN1CC1)OCC(CO)(COC(=O)CCN1CC1)COC(=O)CCN1CC1,Potency,[11],inactive
same,Potency,[12],inactive
same,Potency,[5],inactive
CCC(CC)Nc1c([N+](=O)[O-])cc(C)c(C)c1[N+](=O)[O-],"ratio activity, negative = inhibition",[7]; at 81.1 µM (top of the series),inactive: -20%
same,"ratio activity, negative = inhibition",[7]; [20],inconclusive: 3.86%
same,Potency,[2]; [18],"inconclusive: 61.9 µM [rising, partial curve]"
same,Potency,[13],inconclusive: 59 µM
same,Potency,[8],"inconclusive: 49.6 µM [cytotoxic, partial curve]"
same,Potency,[9],"inconclusive: 0.0351 µM [cytotoxic, full curve, poor fit]"
same,Potency,[12],inconclusive: 49.6 µM [inhibitor]
same,activation,[6],inconclusive: -7.83% [at 81.1 µM]
same,Potency,[3]; [19],inconclusive: 2.22 µM [inhibitor]
same,Potency,[10],"inconclusive: 44.2 µM [cytotoxic, partial curve, poor fit]"
same,Potency,[4],"inconclusive: 43.6 µM [cytotoxic, single point]"
same,activation,[1]; at 61 µM (top of the series),inconclusive: -6.14%
same,activation,[1]; at 78.8 µM (top of the series),inconclusive: -9.21%
O=C(O)CC(O)(CC(=O)O)C(=O)O,"ratio activity, negative = inhibition",[7]; at 5.95 µM (top of the series),inactive: -0.715%
same,"ratio activity, negative = inhibition",[7]; at 81.1 µM (top of the series),inactive: 5.35%
same,"ratio activity, negative = inhibition",[7]; [20],inconclusive: 18.4%
same,Potency,[14],"inconclusive: 0.007 µM [rising, full curve]"
same,Potency,[6],inactive
same,Potency,[4],"inconclusive: 1.77 µM [cytotoxic, single point]"
same,Potency,[1]; [17],inactive
CCCC[N+]1(C)[C@@H]2CC(OC(=O)[C@H](CO)c3ccccc3)C[C@H]1[C@@H]1O[C@@H]12 (stereo partly drawn),Potency,[1]; [17],inactive
O=C(NCO)NCO,"ratio activity, negative = inhibition",[15],inconclusive: 8.66% [at 80.4 µM]
same,"activity change, negative = inhibition",[3]; [19],inconclusive: 34% [activator] [at 78.8 µM]
same,Potency,[5],inactive
CC(C)(C)c1ccccc1O,"ratio activity, negative = inhibition",[7]; at 81.1 µM (top of the series),inactive: -0.549%
same,"ratio activity, negative = inhibition",[7]; [20],inconclusive: 3.2%
same,activation,[2]; at 73.3 µM (top of the series),inconclusive: 10.1%
same,activation,[2]; at 94.8 µM (top of the series),inconclusive: 18.3%
same,Potency,[8],"inconclusive: 24.8 µM [cytotoxic, partial curve, poor fit]"
same,Potency,[14],"inconclusive: 2.21 µM [rising, single point]"
same,Potency,[3]; [19],"inconclusive: 27.9 nM [activator, full curve, poor fit] and inconclusive: 1.95 µM [activator, full curve, poor fit]"
same,Potency,[1]; [17],"inconclusive: 0.0881 µM [rising, partial curve, poor fit]"
Nc1ccc(-c2ccc(N)cc2)cc1,"ratio activity, negative = inhibition",[7]; at 62.6 µM (top of the series),inactive: 1.89% and inactive: -5.91%
same,"ratio activity, negative = inhibition",[7]; [20],inconclusive: -22.1%
same,Potency,[16],"inconclusive: 10.8 µM [rising, partial curve, poor fit]"
same,activation,[2]; [18],inconclusive: 32.1%
same,activation,[2]; at 73.3 µM (top of the series),inactive: -9.59% and inactive: 11.3%
same,Potency,[11],inactive
same,Potency,[9],"inactive and inconclusive: 13.7 µM [cytotoxic, partial curve, poor fit]"
same,Potency,[14],inactive
same,Potency,[3]; [19],"inconclusive: 61.6 µM [activator, single point]"
same,"activity change, negative = inhibition",[3]; [19],inconclusive: 23.2%
same,"activity change, negative = inhibition",[3]; at 61 µM (top of the series),inactive: 6.39%
same,Potency,[10],"inconclusive: 49 µM [rising, partial curve, poor fit]"
same,activation,[1]; [17],inconclusive: 0.23%
CCC1(c2ccccc2)C(=O)N=C(O)NC1=O (stereo not drawn),Potency,[7]; [20],inactive
same,Potency,[1]; [17],inactive
C=CC(C)(CCC=C(C)C)OC(=O)c1ccccc1N (stereo not drawn),Potency,[1]; [17],inactive
